According to PubChem BioAssay AID1508642 (National Center for Advancing Translational Sciences (NCATS), 2021):
In all, about 43,000 compounds went through this assay and about 200 (0.47%) were called active. Roughly 12% stayed inconclusive and do not appear here. Calls follow the shape of the dose curve; as a rule, active = well fitted cell-killing curve with a large enough effect; inconclusive = small, poorly fitted or top-dose-only effect, or effect the other way; inactive = flat fitted curve, though single readings scatter. The list shows a part of the results.

Assay: Cell viability qHTS assay in S16 Pmp22-F2sN cells; also: nearly all actives have a fitted effect of over 65% in size
Settings: S16 Pmp22-F2sN Schwann cells viability, CellTiter-Glo, 24 h; series mostly up to 57.5 µM; activity change, negative = cytotoxicity: at the top concentration
In short: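 Viability was measured by CellTiter-Glo luminescence (15 min, room temperature). This followed 24 h at 37 °C of compound exposure (23 nL pin transfer) in S16 Pmp22-F2sN Schwann cells, 500-1,000 per well.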
% is scaled to controls: 0 for no effect and ±100 for the full control effect.

Structure (SMILES) | activity change, negative = cytotoxicity
O=C(COc1ccccc1F)Nc1ccc2nc(SCC(=O)N3CCCC3)sc2c1 | inactive: 1.46%
CCn1cc(C(=O)NCCc2ccc(Cl)cc2)c(=O)c2cc(S(=O)(=O)N3CCCCCC3)ccc21 | inactive: 12.8%
Cc1nn(CCCC(=O)Nc2cccc(C(F)(F)F)c2)c(=O)c2nn(-c3ccccc3)c(C)c12 | inactive: 16.8%
Cc1ccc(Cn2c(CNC(=O)Cc3cccc([N+](=O)[O-])c3)nc3cccnc32)cc1 | inactive: -5.32%
O=c1c2ccccc2n(Cc2c(F)cccc2Cl)c(=O)n1Cc1ccccc1 | inactive: -12.3%
COCc1nc2ccccc2n1Cc1cccc(C)c1 | inactive: 14.8%
CCn1c(=N)c(C(=O)NCC2CCCO2)cc2c(=O)n3cc(C)ccc3nc21 (stereo unspecified) | inactive: 14.6%
CCc1ccccc1NC(=O)CN1C(=O)c2cccnc2Sc2ccccc21 | inactive: 9.91%
CCn1c(=O)c2sccc2n2c(CCC(=O)Nc3ccc(OC)cc3OC)nnc12 | inactive: 2.52%
CCCCOc1ccc(CNC(=O)C2CCCN(c3nnc(-n4c(C)ccc4C)s3)C2)cc1 (stereo unspecified) | inactive: -7.54%
Cc1ccc(S(=O)(=O)N2CCN(Cc3ccc4c(c3)OCO4)CC2)cc1 | inactive: 5.51%
CCc1ccc(-c2cc(C)no2)cc1S(=O)(=O)Nc1cc(OC)c(OC)c(OC)c1 | inactive: -11.7%
COc1ccc(C2=C(C)C(=NCc3ccc(OC(C)C)cc3)NS2(=O)=O)cc1 | inactive: 1.71%
Cc1ccc2c(c1)sc1nc(=O)n(-c3ccc(Cl)c(Cl)c3)c(=O)n12 | inactive: 9.04%
O=C(CSc1nc2ccccc2nc1Cc1ccccc1F)Nc1cccc(C(F)(F)F)c1 | inactive: 4.41%
COc1ccc(-c2onc(C)c2C)cc1S(=O)(=O)Nc1cc(Cl)ccc1C | inactive: -17.2%
Cc1ccc(NC(=O)Cn2c(=O)oc3cc(S(=O)(=O)N4CCCCC4)ccc32)c(C)c1 | inactive: -16.5%
CCC(=O)Nc1ccc(CC)cc1-c1nc2ccccc2n(CC(=O)Nc2ccccc2C)c1=O | inactive: 11%
CCN(CC)c1ccc(NC(=O)CCS(=O)(=O)c2ccc3c(c2)oc(=O)n3C)c(C)c1 | inactive: 2.91%
COC(=O)c1ccccc1NC(=O)c1cc(CN2CCOCC2)on1 | inactive: 6.89%
CCc1cccc(C)c1Nc1c(-c2cccs2)nc2nc(C)cc(C)n12 | inactive: 7.84%
COc1cc(C(=O)Nc2ccc(-c3nc4ccccc4o3)c(O)c2)cc(OC)c1OC | inactive: 16%
Cc1cn2c(=O)cc(COC(=O)c3ccc(NC(=O)COc4ccc(C)c(C)c4)cc3)nc2s1 | inactive: 5.39%
CCc1ccccc1NC(=O)CSc1nnc(COc2ccccc2Cl)o1 | inactive: 13.4%

Structure (SMILES) | activity change, negative = cytotoxicity
CCOc1ccc(-c2cc(C(=O)NCCCOC)c3c(-c4ccc(CC)cc4)[nH]nc3n2)cc1 | inactive: 28.9%
COc1cc2c(cc1OC)C(COc1ccc(F)cc1)N(C(=O)Cc1ccccc1)CC2 (stereo unspecified) | inactive: 3.28%
CC(C)OCCCn1c(=O)c2ccccc2n2c(-c3cc(Cl)ccc3O)nnc12 | inactive: -1.26%
CCOc1ccccc1NC(=O)N1CCc2c(sc3c2CCCC3)C1c1ccccc1 (stereo unspecified) | inactive: 0.519%
CCOc1ccccc1C(=O)N1CC(=O)Nc2ccc(C)cc2C1c1ccccc1 (stereo unspecified) | inactive: 3.2%
COc1ccc(NC(=O)Nc2cc(-c3cn4cccnc4n3)ccc2OC)cc1 | inactive: 20.2%
Brc1ccc2c(c1)NC(c1cccnc1)=NC(c1ccccc1)=N2 | inactive: 11.2%
Cc1nn2c(=O)cc(COc3ccc(/C=C(\C#N)C(=O)Nc4ccccc4)cc3Cl)nc2s1 | inactive: 10.9%
O=C(OCc1ccccc1Cl)c1ccc(-c2nnn(Cc3ccc(F)cc3)n2)cc1 | inactive: -0.124%
O=c1cc(-c2ccccc2)n2c(SCc3ccc(Br)cc3)nnc2[nH]1 | inactive: -1.5%
CCOc1ccccc1NC(=O)CSC1=Nc2ccccc2C2=NC(CC(=O)NCc3ccc4c(c3)OCO4)C(=O)N12 (stereo unspecified) | inactive: 2.62%
Cc1nn(CC(=O)NCCc2ccccc2)c(=O)c2c1sc1ccccc12 | inactive: -14.3%
CC(=O)N1c2ccc(S(=O)(=O)N(C)CC(=O)N(Cc3ccccc3)C(C)C)cc2CC1C (stereo unspecified) | inactive: -0.37%
CC(C)(C)c1ccc(C(=O)N2CCN(CCc3ccccn3)CC2)cc1 | inactive: 3.62%
O=C(Cc1ccccc1)Nc1nnc2n1CCS2 | inactive: -3.15%
CCN(Cc1ccccc1)Cc1c(O)ccc2oc(C)c(C(=O)Nc3ccccc3C)c12 | inactive: -17.4%
CCC(C)NC(=O)Cn1c(=O)n(-c2ccc(C)c(C)c2)c(=O)c2c(C)c(C(=O)N(CC)CC)sc21 (stereo unspecified) | inactive: 8.26%
CCCCSCCCNC(=O)c1c[nH]c2ccc(S(=O)(=O)Nc3cccc(OC)c3)cc2c1=O | inactive: -6.98%
Cc1cc2nc(N(Cc3cccnc3)C(=O)c3ccc(Cl)s3)sc2cc1C | inactive: 4.24%
Cc1ccc(S(=O)(=O)NCC(c2ccc(N(C)C)cc2)N2CCc3ccccc32)cc1 (stereo unspecified) | inactive: 8.2%
Cc1ccc(NC(=O)Cn2cc(C(=O)c3ccco3)c3ccccc32)cc1 | inactive: 4.14%
CCOc1ccc(-c2cccc(NS(=O)(=O)c3ccccc3C(F)(F)F)c2)nn1 | inactive: 3.66%
O=S(=O)(c1ccc2nc(Nc3cccc(F)c3)ccc2c1)N1CCCC1 | inactive: 12.1%
CCOc1ccccc1C1C(C(=O)Nc2ccccc2)=C(C)Nc2c(C(=O)Nc3ccc(F)cc3)cnn21 (stereo unspecified) | inactive: -19.6%

Structure (SMILES) | activity change, negative = cytotoxicity
CCn1cc(C(=O)N2CCN(c3ccc(OC)cc3)CC2)c2cc(OC)c(OC)cc2c1=O | inactive: 13.3%
CCn1c(C(=O)N2CCCC(C(=O)N3CCN(c4ccccc4)CC3)C2)cc2sccc21 (stereo unspecified) | inactive: -2.6%
CCc1ccc(NC(=O)N2CCC(N3CCN(Cc4ccc(C)cc4)C(=O)C3=O)CC2)cc1 | inactive: -12.5%
Cc1cccc(N2CCN(c3ccc(NC(=O)c4ccccc4)cc3C(=O)O)CC2C)c1 (stereo unspecified) | inactive: 1.83%
COc1ccc(-c2noc(CSc3nc(N)cc(=O)[nH]3)n2)cc1 | inactive: -22.4%
Cc1cc2[nH]c(=O)c(=O)[nH]c2cc1S(=O)(=O)Nc1ccc(OC(F)(F)F)cc1 | inactive: 6.97%
COc1cccc(CNC(=O)C(Cc2ccccc2)NS(=O)(=O)c2ccc3c(c2)oc(=O)n3C)c1 (stereo unspecified) | inactive: -6.04%
Cc1cccc(OC(=O)c2cc(-c3ccc4c(c3)OCCO4)on2)c1C | inactive: 2.57%
Cc1cc(Nc2cccc(Cl)c2)nc2ccc(NC(=O)c3cccc(N(C)C)c3)cc12 | inactive: -17.1%
CCCS(=O)(=O)N1CCC(N2CCN(Cc3ccc(F)cc3)C(=O)C2=O)CC1 | inactive: 17.2%
COc1ccc(-c2noc(-c3nnn(-c4ccc(C(C)C)cc4)c3C)n2)cc1OC | inactive: 8.23%
O=C(Nc1ccccc1)c1ccc2c(O)c(S(=O)(=O)c3ccc(Cl)cc3)c(=O)[nH]c2c1 | inactive: 4.68%
CCOC(=O)c1ccc(NC(=O)CN2Cc3ccccc3C2=O)cc1 | inactive: 1.25%
Cc1ncc(CO)c2c1Oc1nc(-c3ccc(F)cc3)nc(SCc3ccc(F)cc3Cl)c1C2 | inactive: 7.83%
O=C(NCc1ccc(F)cc1)c1ccc2c(c1)nc1n2CCCCC1 | inactive: 7.2%
CSc1ncc(Cl)c(C(=O)Nc2c(C(=O)c3ccc(C)c(F)c3)oc3ccccc23)n1 | inactive: 9.73%
COc1cccc(NC(=O)CCc2nc(-c3cccs3)no2)c1 | inactive: -2.73%
CCOC(=O)CCc1c(C)nc2c(c(C)nn2-c2ccc(C)cc2)c1C | inactive: 0.144%
O=C(Cn1nc(-c2ccc(Cl)cc2)ccc1=O)NCCc1ccccc1 | inactive: 1.36%
O=C(C1CCC1)N1CCc2cc(S(=O)(=O)NCCc3ccccc3)ccc21 | inactive: 6.4%
Cc1ccc(Cl)cc1N(C)C(=O)C1CCCN(c2ncnc3onc(-c4ccc(F)cc4)c23)C1 (stereo unspecified) | inactive: -11.8%
Cc1ccc(Cn2c(CCNC(=O)C(C)C)nc3ccccc32)cc1 | inactive: -2.99%
COc1ccc(CNC(=O)CCNS(=O)(=O)c2ccc3c(c2)CCCC(=O)N3)cc1 | inactive: -0.272%
COc1ccc(-c2nc(SCC(=O)NCc3ccccc3Cl)n[nH]2)cc1 | inactive: -14.9%

Structure (SMILES) | activity change, negative = cytotoxicity
Cc1cccc(CN2CCC(CNc3ncnc4onc(-c5ccc(Cl)cc5)c34)CC2)c1 | inactive: -18.3%
Cc1ccc(CNC(=O)CN2C(=O)CC(c3ccc(C)c(C)c3)=Nc3ccccc32)cc1 | inactive: -0.411%
COc1ccc(-c2nc(S(=O)(=O)c3ccc(C)cc3)c(N3CCCCC3)o2)cc1 | inactive: -2.33%
O=C(NCc1cccc(Cl)c1)NCc1noc2ccccc12 | inactive: -1.23%
CCCCN(CC)C(=O)CCCn1c(=O)c2cccn2c2ccccc21 | inactive: -6.41%
COc1cccc(N2CCN(c3ncnc4c3c(-c3ccccc3)cn4-c3ccc(F)cc3)CC2)c1 | inactive: 3.05%
COc1ccc(NC(=O)C2CCCN(S(=O)(=O)c3cccc4nonc34)C2)cc1Cl (stereo unspecified) | inactive: -4%
Clc1cccc(-n2cc(-c3ccccc3)c3c(NC4CCCC4)ncnc32)c1 | inactive: -1.35%
COc1ccccc1NC(=O)CSc1nc2c(oc3ccccc32)c(=O)n1Cc1ccco1 | inactive: -10.1%
Cc1ccc(-c2nnc3c4ccccc4c(C)nn23)cc1NC(=O)c1cccc(Br)c1 | inactive: -14.4%
CCN1CCN(c2ncnc3c2cnn3-c2cc(Cl)ccc2C)CC1 | inactive: 19%
CCOC(=O)c1c(S(=O)(=O)NCC(=O)N(C)Cc2ccccc2)c(C)n(C)c1C | inactive: 2.04%
COc1ccccc1N1CCN(c2ncnc3c2c(-c2ccccc2)cn3-c2cccc(C)c2)CC1 | inactive: 16.5%
CC1CCN(S(=O)(=O)c2csc(C(N)=O)c2)CC1 | inactive: 14.8%
CCOC(=O)c1cnc(N2CCN(c3ccc(OC)cc3)CC2)c2ccccc12 | inactive: 18.1%
CC(=O)Nc1nonc1-c1nnc(SCC(=O)Nc2ccc(C)c(Cl)c2)n1C | inactive: 3.1%
CCOc1ccc2c(c1)c(=O)c(S(=O)(=O)c1ccc(C)cc1)cn2Cc1ccccc1Cl | inactive: -14%
CCCOc1ccc(C2c3c(oc4ccc(F)cc4c3=O)C(=O)N2CCc2ccc(OC)cc2)cc1 (stereo unspecified) | inactive: 4.93%
O=C(CSc1oc(-c2ccc(F)cc2)nc1S(=O)(=O)c1ccc(Br)cc1)NC1CCCCC1 | inactive: 2.8%
CCC(=O)Nc1cccc(-c2nc3cc(C)ccc3o2)c1 | inactive: 17.2%
CC(=O)c1ccc(N2CCN(c3ccc4cc(S(=O)(=O)N5CCC(C)CC5)ccc4n3)CC2)cc1 | inactive: 16.3%
Cc1cccc(NC(=O)/C(C#N)=C/c2ccc(C)o2)c1 | inactive: -18.7%
Cc1ccc(S(=O)(=O)c2cn(CC(=O)Nc3ccc(Cl)cc3)c3ccc(F)cc3c2=O)cc1C | inactive: -8.98%
COc1cc(C2CC(=O)Nc3c2c(=O)n(C)c2ncnn32)cc(OC)c1OC (stereo unspecified) | inactive: -4.24%
